According to paper PMC4336329 (PLoS ONE, 2015):
The whole screen tested about 310,000 compounds, of which about 2,200 (0.71%) showed an effect of 50% or more. The effect is printed as a negative number. This is one part of the list.

What follows are compounds tested against human ether-à-go-go-related gene (hERG) potassium channel (human, UniProt Q12809) (assay: primary screen, population patch clamp on CHO cells stably expressing hERG).
Chain of human ether-à-go-go-related gene (hERG) potassium channel (Q12809 whole entry, looked up): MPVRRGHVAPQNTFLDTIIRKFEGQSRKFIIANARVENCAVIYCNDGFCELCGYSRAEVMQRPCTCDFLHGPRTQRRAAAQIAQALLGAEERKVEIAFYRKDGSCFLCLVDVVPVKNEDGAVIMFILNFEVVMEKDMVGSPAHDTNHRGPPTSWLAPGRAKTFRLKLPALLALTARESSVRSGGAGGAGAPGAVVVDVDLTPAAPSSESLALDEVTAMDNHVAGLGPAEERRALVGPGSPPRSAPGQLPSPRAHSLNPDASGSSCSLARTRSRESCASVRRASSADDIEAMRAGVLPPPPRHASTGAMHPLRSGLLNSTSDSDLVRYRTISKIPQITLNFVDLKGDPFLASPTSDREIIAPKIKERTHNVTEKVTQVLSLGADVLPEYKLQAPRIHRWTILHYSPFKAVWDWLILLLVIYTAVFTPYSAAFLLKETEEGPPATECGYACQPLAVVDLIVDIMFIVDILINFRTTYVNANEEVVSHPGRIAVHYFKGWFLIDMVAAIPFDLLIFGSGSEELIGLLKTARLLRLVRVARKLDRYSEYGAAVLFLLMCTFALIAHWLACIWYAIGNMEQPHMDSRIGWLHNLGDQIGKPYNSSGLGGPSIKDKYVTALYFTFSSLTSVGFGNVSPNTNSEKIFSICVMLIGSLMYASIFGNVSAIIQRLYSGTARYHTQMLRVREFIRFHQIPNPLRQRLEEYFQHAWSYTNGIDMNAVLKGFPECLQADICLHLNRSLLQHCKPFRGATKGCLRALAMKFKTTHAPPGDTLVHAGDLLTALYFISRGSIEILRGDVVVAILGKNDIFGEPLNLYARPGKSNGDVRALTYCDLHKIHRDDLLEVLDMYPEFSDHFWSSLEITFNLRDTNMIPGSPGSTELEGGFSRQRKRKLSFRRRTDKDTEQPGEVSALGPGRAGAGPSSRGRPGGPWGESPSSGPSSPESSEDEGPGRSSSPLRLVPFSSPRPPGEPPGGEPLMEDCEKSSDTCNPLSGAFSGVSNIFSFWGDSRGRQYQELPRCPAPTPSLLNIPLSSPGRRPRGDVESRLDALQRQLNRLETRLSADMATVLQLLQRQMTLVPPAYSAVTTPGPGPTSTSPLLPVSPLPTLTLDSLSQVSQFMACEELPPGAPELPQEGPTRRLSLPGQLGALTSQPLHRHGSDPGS

Row | Structure (SMILES) | hERG current change (%, negative = inhibition) at 1uM [%]
1 | O=C(c1ccc(N2CCOCC2)c([N+](=O)[O-])c1)N1CCN(S(=O)(=O)c2cccs2)CC1 | -1.71
2 | COc1ccc(-c2csc(NC(=O)CN3C(=O)CCC3=O)n2)cc1 | -0.311
3 | COc1ccc2[nH]c(=O)c(CN(Cc3cccs3)C(=S)Nc3cccc(C)c3)cc2c1 | 5.81
4 | N#Cc1cc(Nc2c(N)nc[nH]c2=O)c([N+](=O)[O-])cc1C#N | 9.47
5 | CC(NC(=O)CN1CCC(C(N)=O)CC1)c1ccccc1 (stereo not shown) | 11.7
6 | O=C(NCCNS(=O)(=O)c1ccccc1Cl)c1cc(OCC(F)(F)F)ccc1OCC(F)(F)F | 2.42
7 | C=Cc1ccc(Cn2c(=O)n(CCCOC)c(=O)c3sccc32)cc1 | 2.64
8 | O=c1c2cnn(-c3ccccc3)c2nc(-c2ccco2)n1-c1ccccc1 | 13.5
9 | CC(C)CNc1nc(SCC(=O)Nc2ccccc2)nc(N2CCOCC2)n1 | 4.88
10 | O=c1cc(CNc2cc(C(F)(F)F)cc(C(F)(F)F)c2)nc2sccn12 | 6.39
11 | COC(=O)c1sccc1NC(=O)COc1ccc(F)cc1Cl | 3.54
12 | Cc1ccc(-c2csc(NCCc3nc4cc(Cl)c(Cl)cc4n3CCOCCO)n2)cc1 | 6.51
13 | Cc1c(NS(=O)(=O)c2ccc(F)cc2)c(=O)n(-c2ccccc2)n1C | 10.9
14 | CN(C)c1ccc(NC(=O)CSc2n[nH]c(-c3ccco3)n2)cc1 | 8.47
15 | Cc1ccc2cc(CN(CC3CCCO3)C(=S)Nc3ccccc3)c(=O)[nH]c2c1C (stereo not shown) | 13.3
16 | Cc1cccc(OCC(=O)Nc2ccccc2N2CCCCC2)c1C | 2.33
17 | Cc1[nH]c(C)c(S(=O)(=O)N(C)Cc2ccccc2)c1C(=O)N1CCCC1 | 15.8
18 | CCC(=O)N1CCc2cc(S(=O)(=O)CCC(=O)NCc3ccc4c(c3)OCO4)ccc21 | 8.37
19 | O=C(c1ccccc1)N(NC(=O)C(O)(c1ccccc1)c1ccccc1)c1cccc(F)c1 | 4.53
20 | Cc1ccc2c(c1)S/C(=C/c1ccc[n+](C)c1)N2CCO.[I-] | 6.01
21 | O=C(Nc1cccc(Cl)c1)C1CCCCC1 | 5.93
22 | O=C(O)C(=O)O.O=S(=O)(c1ccc(F)cc1)N1CCN(CC(O)COc2ccccc2F)CC1 (stereo not shown) | 7.57

Row | Structure (SMILES) | hERG current change (%, negative = inhibition) at 1uM [%]
23 | O=C(Cc1ccc(F)cc1)Nc1ccc(F)c([N+](=O)[O-])c1 | 4.86
24 | COc1ccc2[nH]c(C)c(CCNc3ccc(C(F)(F)F)cc3[N+](=O)[O-])c2c1 | 4.11
25 | Cc1ccc(S(=O)(=O)C2(C(=O)NCc3ccccc3Cl)CC2)cc1 | 11.6
26 | CN1CCN(S(=O)(=O)c2cccc(C(=O)N(C)Cc3c(F)cccc3Cl)c2)CC1 | 4.69
27 | O=C(O)Cn1c(C(F)(F)F)nc2ccccc21 | 8.46
28 | COc1ccc(CC(=O)NCc2cccc(CNC(=O)Cc3ccc(OC)c(OC)c3)c2)cc1OC | 20.3
29 | Cn1c(N)c(C(=O)COC(=O)CN2C(=O)c3ccccc3C2=O)c(=O)n(C)c1=O | 8.44
30 | CN(CC(=O)Nc1ccc(F)cc1)CC(=O)Nc1ccc(F)c(F)c1F | 0.236
31 | C#CCOCCOCCOCCNc1nc(N2CCN(C(=O)C([C@@H](C)CC)n3cc(C(N)COC(=O)C(F)(F)F)nn3)CC2)nc(N2CCN(C(=O)[C@H](CCCCN)n3cc(C(N)CC(C)C)nn3)CC2)n1.Cl (stereo partly shown) | 8.25
32 | C[N+](C)(C)CCCN(Cc1ccc2c(c1)OCO2)C(=O)NC1CCCCC1.[I-] | 12.5
33 | O=C(Nc1ccc(NS(=O)(=O)c2ccccc2)cc1)c1ccc(Cl)cc1 | -2.54
34 | CCN(CCNC(=O)C1CCN(S(=O)(=O)c2cccc3nsnc23)CC1)c1ccccc1 | 1.2
35 | CNC(=S)NNC(=O)c1cc(C(C)(C)C)nn1Cc1ccc(F)cc1 | 15.1
36 | O=C(C1CCCCN1S(=O)(=O)c1ccccc1)N1CCN(Cc2ccccc2)CC1 (stereo not shown) | 7.17
37 | Cn1c(NCc2ccco2)nc2ccccc21 | -7.71
38 | CC(C)CCNC(=O)NC(=O)CSc1nnc2ccccn12 | 19.2
39 | O=C(CN1C(=O)COc2ccc(S(=O)(=O)N3CCOCC3)cc21)NCc1ccccn1 | 10.8
40 | O=C(Cc1n[nH]c(=O)c2ccccc12)OCC(=O)c1ccc(F)c(F)c1 | 20.2
41 | Cc1cccc(C(=O)NC(=S)N2CCN(c3ccc([N+](=O)[O-])cc3)CC2)c1 | 1.02
42 | Cn1c(SCC(=O)Nc2ccccc2O)nnc1-c1ccco1 | -10.5
43 | COc1cccc(CC(=O)Nc2ccc3c(c2)OC2(CCCC2)O3)c1 | -2.94
44 | NS(=O)(=O)c1ccc(CCNC(=S)NC2CCCCC2)cc1 | 7.21

Row | Structure (SMILES) | hERG current change (%, negative = inhibition) at 1uM [%]
45 | CCNc1nc(NCC)n2c(SCC(=O)Nc3ccc(CC)cc3)nnc2n1 | 14.4
46 | CCCn1c(NC(=O)c2ccco2)nc2ccccc21 | 12.2
47 | CN1CCN(C(=S)SCc2nc(N)nc(Nc3ccc(F)cc3)n2)CC1 | 3.05
48 | O=C(NCc1ccc(F)cc1)N1CCc2ccccc2C1 | 10.2
49 | Cc1ccccc1-n1c(SCC(N)=O)nc2sc(-c3ccccc3)cc2c1=O | 11.8
50 | CC1Cc2ccccc2N1CC(=O)N(C)c1c(N)n(Cc2ccccc2)c(=O)[nH]c1=O (stereo not shown) | 2.89
51 | CCCCCCCC(=O)OC(CN1CCCC1=O)C[NH+]1CCCCCC1.[Cl-] (stereo not shown) | 8.17
52 | CC(Oc1ccc(Cl)cc1)C(=O)Nc1nccs1 (stereo not shown) | 5.62
53 | COc1ccc(-c2noc(-c3ccccc3C(=O)NCc3ccco3)n2)cc1OC | -9.11
54 | Cc1cc(=O)c(C(=O)O)cn1Nc1ccc(F)cc1 | 4.96
55 | COc1ccc(OC)c(S(=O)(=O)Nc2ccc3c(c2)N(C(C)=O)CCC3)c1 | 9.1
56 | CC(CN1C(C)CCCC1C)OC(=O)c1ccccc1Br.Cl (stereo not shown) | 4.15
57 | CCCCn1c(SCC(=O)N(C)C2CCS(=O)(=O)C2)nc2cc(S(N)(=O)=O)ccc21 (stereo not shown) | 12.5
58 | Cc1cc(C)c(C#N)c(N2CCC(C(N)=O)CC2)n1 | 2.67
59 | COc1ccc(-c2noc(-c3ccc(Br)o3)n2)cc1 | 13.9
60 | CCCOc1ccc(-c2nc(N3CCN(C)CC3)c3ccccc3n2)cc1 | 4.17
61 | O=C(Nc1ccccc1)O/N=C/c1ccncc1 | 12.9
62 | Cn1c(CN2CCCC2)nc2cc(NC(=O)COc3ccc(Cl)cc3)ccc21 | -13
63 | CCC(C)(C(=O)NC1CCCC1)N(C(=O)c1ccccn1)c1ccc(C)cc1 (stereo not shown) | 14.6
64 | CCN1CCN(C(=O)CCc2nnc(CCc3ccccc3OC)o2)[C@@H](C)C1=O | 16.7
65 | CN(C)S(=O)(=O)c1ccc(Cl)c(NC(=O)CN2C(=O)NC3(CCCC3)C2=O)c1 | 13.2
66 | Cc1cccc(C)c1N1C(=O)c2cccc([N+](=O)[O-])c2C1=O | 2.99

Row | Structure (SMILES) | hERG current change (%, negative = inhibition) at 1uM [%]
67 | Cc1ccc(NC(=O)C2=CCN(S(=O)(=O)c3ccc(F)cc3)CC2)cc1 | 3.31
68 | COc1ccc(N(CCC(=O)O)S(=O)(=O)c2ccc(C)cc2C)cc1 | 8.05
69 | Cc1ccc(NC(=O)Cn2nc(-c3ccccc3Cl)ccc2=O)c(Br)c1 | 1.06
70 | Cc1sc(NC(=O)CN2C(=O)NC3(CCCC3)C2=O)nc1-c1ccc(F)cc1 | -11.1
71 | Cc1ccc(CN2C(=O)c3ccccc3NC23CCN(Cc2ccccc2)CC3)cc1 | -9.06
72 | Cc1ccc2c(c1)nnn2C1CCN(C(=O)NCc2ccccc2)CC1 | -44.4
73 | Cc1cccc(CN2CCN(C(C)C(=O)NC(C)c3ccccc3)CC2)c1.O=C(O)C(=O)O (stereo not shown) | 12
74 | CC1CCCN(CCCNC(=O)c2cc3c(Cl)nc4ccccc4c3s2)C1 (stereo not shown) | -15.5
75 | O=C(c1ccc2nc(Cc3cccc(Cl)c3)oc2c1)N1CCC[C@H]1CO | 12.4
76 | O=C(C1CC(=O)N(c2ccc(F)cc2)C1)N1CCN(c2ccc(F)cc2)CC1 (stereo not shown) | -71.1
77 | Cc1ccc(C)c(SCc2noc(C(=O)NC(C)C)c2C(=O)O)c1 | 3.63
78 | Cc1c(C(=O)N2CCCCC2)c(S(=O)(=O)NCc2ccc(Cl)cc2)c(C)n1C | 6.78
79 | CCSc1nnc(NC(=O)C(CC)Oc2ccccc2)s1 (stereo not shown) | 18.2
80 | Nc1ccc(Sc2ccccc2)nc1 | 8.87
81 | CN(Cc1ccccc1)c1nc2c(c(=O)n(C)c(=O)n2C)n1CCSc1ncccn1 | 4.21
82 | CCCOc1ccc(NC(=O)Cc2ccc(S(=O)(=O)N3CCOCC3)s2)cc1OCCC | 21.1
83 | CSc1ncccc1C(=O)N1CCN(S(=O)(=O)c2ccc(C)cc2)CC1 | 3.52
84 | C(=N\C(/N=C/c1ccco1)c1ccco1)/c1ccco1 | 9.71
85 | Cc1ccccc1NC(=O)c1ccc(OCc2c(C)noc2C)cc1 | 7.91
